According to PMC6919601, “Identification of Plasmodium dipeptidyl aminopeptidase allosteric inhibitors by high throughput screening” (PLoS ONE, 2019):
Screen size: about 110,000 compounds; about 230 (0.21%) showed an effect of 50% or more. Some of the results follow.

target: DPAP1 (Plasmodium falciparum, UniProt Q8IIJ9); assay: primary screen, percent inhibition; read by cleavage of a fluorogenic dipeptide substrate; higher = more effect of the substance; design: species or system P. falciparum D10 trophozoite lysates; single well
Sequence (Q8IIJ9 whole entry, looked up): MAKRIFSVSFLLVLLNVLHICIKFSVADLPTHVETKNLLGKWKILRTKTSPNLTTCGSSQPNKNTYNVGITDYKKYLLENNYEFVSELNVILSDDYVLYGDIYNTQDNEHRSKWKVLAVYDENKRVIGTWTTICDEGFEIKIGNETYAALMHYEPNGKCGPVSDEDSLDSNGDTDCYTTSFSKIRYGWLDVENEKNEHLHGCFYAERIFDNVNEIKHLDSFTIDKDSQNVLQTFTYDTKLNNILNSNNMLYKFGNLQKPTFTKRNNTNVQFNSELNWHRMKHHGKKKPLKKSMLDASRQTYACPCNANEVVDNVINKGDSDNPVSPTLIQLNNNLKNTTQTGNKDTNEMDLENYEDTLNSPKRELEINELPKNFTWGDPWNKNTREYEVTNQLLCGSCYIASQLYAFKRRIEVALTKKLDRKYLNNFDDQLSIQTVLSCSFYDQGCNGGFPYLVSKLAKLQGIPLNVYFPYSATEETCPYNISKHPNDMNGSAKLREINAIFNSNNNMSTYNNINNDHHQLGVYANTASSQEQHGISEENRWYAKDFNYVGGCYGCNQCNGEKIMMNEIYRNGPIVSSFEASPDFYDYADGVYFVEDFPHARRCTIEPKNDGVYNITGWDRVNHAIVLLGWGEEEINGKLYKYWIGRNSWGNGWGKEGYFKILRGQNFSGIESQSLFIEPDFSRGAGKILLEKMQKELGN
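Also: 30 min substrate incubation versus DMSO and 10 µM JCP410 controls.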

| Structure (SMILES) | % Inhibition @ 10 uM |
| --- | --- |
| COc1ccc(/C=c2\s/c(=C/C(=O)c3ccc(C)cc3)[nH]c2=O)cc1OC | -5.24% |
| Cc1ccccc1N(CC(=O)N(C)Cc1ccccc1)S(=O)(=O)c1ccccc1 | -8.78% |
| CCC(C)(C)C(=O)Nc1ccc(S(=O)(=O)N2CCC(C)CC2)cc1 | -10.2% |
| O=C(CN1CCCC1)N1c2ccccc2Sc2ccc(C(F)(F)F)cc21 | -0.294% |
| O=C(NCc1ccccc1)C1CCCN(S(=O)(=O)c2cccs2)C1 (stereo not shown) | 6.82% |
| CCOc1ccc(Nc2[nH]nc(C)c2[N+](=O)[O-])cc1 | -7.46% |
| CC(c1ccccc1)n1cnc2ccccc21 (stereo not shown) | 9.03% |
| Cc1ccc(OCCCC(=O)Nc2sc3c(c2C#N)CCC(C)C3)cc1 (stereo not shown) | -1.25% |
| CCCCNC(=O)c1cc(-c2ccc(O)c(OC)c2)nc2[nH]nc(-c3ccccc3)c12 | 10.1% |
| CCOc1ccccc1/C=c1\sc2nc(-c3cccc(Cl)c3)nn2c1=O | 2.24% |
| Cc1nnnn1-c1nc(-c2ccc(Cl)cc2)cc(C(F)(F)F)n1 | -8.56% |
| Cc1ccc(-c2noc(CCC(=O)NCCN3CCN(Cc4ccccc4)CC3)n2)cc1 | 4.05% |
| CCCCN(C)C1CCN(C(=O)OCC)CC1 | 1.88% |
| CCOC(=O)N1CCN(c2nn3nnnc3c3ccccc23)CC1 | 2.81% |
| CCCOCCOC(=O)C1=C(C)NC(=O)CC1c1ccccc1OC (stereo not shown) | 5.86% |
| CCc1ccccc1NC(=O)CN(c1ccc(C(C)C)cc1)S(C)(=O)=O | -7.69% |
| CCC(C)C1C(C#N)=C(N)OC2=C1C(=O)CCC2 (stereo not shown) | -5.34% |
| C=CCOC(=O)c1sc(N2C(=O)c3oc4ccc(F)cc4c(=O)c3C2c2ccc(O)cc2)nc1C (stereo not shown) | -3.13% |
| O=C(CSc1nsc(SCC(=O)N2CCOCC2)n1)N1CCOCC1 | 0.361% |
| Cc1onc(-c2ccccc2)c1C(=O)n1cccn1 | -4.03% |
| COC(=O)C1=C(C)N(C)C(=S)NC1c1ccc(OC)c(OC)c1 (stereo not shown) | -0.339% |
| CCC1CCCCN1Cc1nc2c(c(=O)n(C)c(=O)n2C)n1Cc1ccccc1 (stereo not shown) | -2.29% |
| Cc1nnc2c(NCCC(C)C)nc3ccccc3n12 | -2.88% |
| Cc1ccc(N(CC(=O)N2CCCCC2)S(=O)(=O)c2ccc(C)cc2)cc1 | -1.95% |
| Cc1cc(C)nc(NS(=O)(=O)c2ccc(NC(=O)c3cc(Cl)ccc3Cl)cc2)n1 | -0.425% |

| Structure (SMILES) | % Inhibition @ 10 uM |
| --- | --- |
| CCSc1nc2sc3c(c2c(=O)n1CC)CCC3 | -1.99% |
| COc1cc(OC)c(CN2CCCN(C)CC2)cc1Br | -0.192% |
| Cc1ccccc1-c1nc(CN2CCC(C(=O)NC3CCN(Cc4ccccc4)CC3)CC2)c(C)o1 | -6.4% |
| Cc1ccc2c(c1)-c1c(cnn1CC(=O)N(C)C1CCCCC1)CO2 | 1.93% |
| O=C(Nc1n[nH]c(-c2n[nH]c(NC(=O)C(F)(F)F)n2)n1)C(F)(F)F | -2.72% |
| CC(=O)Nc1ccc(N/C=C2/C(=O)NC(=O)N(c3ccccc3)C2=O)cc1 | 0.76% |
| CCOC(=O)C1=C(C)N=c2s/c(=C\c3ccc(OC)c(OC)c3)c(=O)n2C1c1ccc(N(C)C)cc1 (stereo not shown) | -5.92% |
| CN1CCN(C(=O)CCCN2C(=O)c3ccccc3Sc3ncccc32)CC1 | 2.6% |
| O=C1Nc2c(Br)cc(Br)c3cccc1c23 | 0.98% |
| CCOC(=O)/C(C#N)=C/c1c(Oc2ccc(CC)cc2)nc2c(C)cccn2c1=O | -1.43% |
| Cc1cc(C(F)F)nn1CC(=O)Nc1cccc(Br)c1 | 0.5% |
| COc1ccc(CCNC(=O)c2cc(Cl)ccc2OC)cc1OC | 8.71% |
| COc1ccccc1N1CCN(CCCN2C(=O)C3CCCN3C2=O)CC1 (stereo not shown) | -0.0619% |
| COc1ccc(CCC(=O)Nc2ccn(Cc3cccc4ccccc34)n2)cc1 | -6.65% |
| Nc1cc(NC(=O)c2cccc(Cl)c2)cc(Oc2cccnc2)c1 | -1.04% |
| CS(=O)(=O)N(CC(=O)NCc1ccco1)c1ccccc1Br | 2.43% |
| N#Cc1c(NC(=O)c2cccc(S(=O)(=O)N3CCCC3)c2)sc2c1CCCC2 | 2.01% |
| CCC1CCCCN1C(=O)Cn1c(C(=O)OC)cc2sc(C)cc21 (stereo not shown) | -9.3% |
| CCC(C)Oc1ccc(/C=C2\NC(=O)N(Cc3ccc(Cl)cc3)C2=O)cc1 (stereo not shown) | -4.93% |
| Cc1[nH]c2ccccc2c1C(Nc1ccc(F)cc1)c1ccncc1 (stereo not shown) | -5.57% |
| Cc1ccc(CN(CC(=O)NC(C)(C)C)S(=O)(=O)c2ccc(Br)cc2)cc1 | 1.08% |
| O=C1CC(c2ccc([N+](=O)[O-])cc2)=NN1c1cc(S(=O)(=O)O)ccc1Cl | -1.74% |
| COc1ccc(CC(=O)Nc2ccccc2NC(=O)Cc2ccc(OC)cc2)cc1 | -1.39% |
| CN1C(C(=O)c2ccccc2)=C(O)c2ccccc2S1(=O)=O | 3.5% |
